Data on 84 compounds can be found in PubChem BioAssay AID1346428 (National Center for Advancing Translational Sciences (NCATS), 2018).

The campaign covered roughly 48,000 compounds. About 1,200 (2.5%) were called active. Inconclusive results (about 2%) are left out.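 The calls were made as follows: active = activation of at least 60% and not above a set upper limit (about 1 call in 100 departs from these limits); inconclusive = activation of 40% to 60%, or above that upper limit; inactive = activation under 40%.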 This is one part of the list.

This experiment has as its target Probable G-protein coupled receptor 32 (Homo sapiens) (UniProt O75388). Description: qHTS for Agonists of Human Resolvin D1 Receptor DRV1. To be noted: CHO-K1 GPR32 beta-arrestin PathHunter luminescence, 90 min; at 76.9 µM; stronger effect = higher value; zero percent set by DMSO-only wells. The source says: Endogenous resolution of inflammation is known to be transduced through various GPCRs and their natural mediators of lipid nature. Resolvin D1 (RvD1) is one of the active players in resolution of acute inflammation through regulation of anti-inflammatory pathways; it is known to enhance phagocytosis of human macrophages, limits neutrophils infiltration, etc. […] The search for GPR32-activating small molecules with anti-inflammatory effects similar to its natural omega-3 derivative ligand in order to use them as research tools for further studies of inflammation and its resolution was the goal of this screening project. For primary screening assay, we used CHO-K1 GPR32 beta-arrestin cell line (DiscoveRx, #93-0321C2A) and the PathHunter(R) beta-Arrestin Assay (DiscoveRx) which measures recruitment of beta-arrestin to the GPR32 and generates chemiluminescent signal. These engineered cells stably transfected with GPR32 co-express GPR32-fused small 42-amino acid fragment of beta-Gal called ProLinktrade mark, and […] -tagged beta-Arrestin fusion protein. When GPR32 is activated by a ligand, it stimulates binding of beta -Arrestin to ProLink-tagged GPR32, and two parts of beta-Gal complement forming a functional enzyme. Upon substrate (PathHunter(R) Detection reagent) addition, beta-Gal hydrolyzes it and generates a chemiluminescent signal.
UniProt O75388, sequence (O75388 whole entry, looked up): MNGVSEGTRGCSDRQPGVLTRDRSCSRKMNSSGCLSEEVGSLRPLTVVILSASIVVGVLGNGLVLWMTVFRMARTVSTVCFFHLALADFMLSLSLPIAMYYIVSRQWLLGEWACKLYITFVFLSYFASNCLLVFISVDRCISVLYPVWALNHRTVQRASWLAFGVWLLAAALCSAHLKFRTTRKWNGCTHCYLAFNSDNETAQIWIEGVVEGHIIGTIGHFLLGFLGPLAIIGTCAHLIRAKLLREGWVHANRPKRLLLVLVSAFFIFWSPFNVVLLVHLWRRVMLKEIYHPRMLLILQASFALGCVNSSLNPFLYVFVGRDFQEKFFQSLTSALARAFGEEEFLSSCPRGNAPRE
The cells were thawed and plated in thawing media containing F-12 HAM (Invitrogen, #11765-054), 10% FBS (Invitrogen, #10082), 1x Glutamine, and 1x Pen/Strep onto the 175-mm flask for 24 hours. Then, thawing media was replaced with Growth media which contains 800microg/mL Geneticin (Invitrogen, #10131) and 300microg/mL Hygromycin B (Invitrogen, #10687) in addition to described above. For the assay, the cells were harvested at ~80% confluent stage with Cell Dissociation buffer (Gibco, #13151), and seeded at 2,500 cells/ 3microL/well in assay media (PathHunter(R) Cell Plating Reagent, DiscoverX, #93-0563R1B) using MultiDrop Combi dispenser (Thermo Scientific, Logan, UT) onto white solid bottom tissue culture-treated 1536-well plates (Greiner # 789173-F) and allowed to attach overnight at 37 degrees C, 95% humidity, 5% CO2, . Next, 23nL/well of compound solutions in DMSO were added with a Pin Tool (Kalypsis, San Diego, CA) to the assay plates. As the basal control (EC0), 23 nL/well of DMSO was used on each plate. The cells were incubated in the presence of compounds or DMSO for 90 minutes at 37 degrees C, 5% CO2. Subsequently, 1.5microL/well of PathHunter(R) Detection Reagent prepared per the manufacturer's instructions was added to the assay plates with BioRAPTR FRDtrade mark dispenser (Beckman Coulter, San Francisco, CA) and incubated for 1 hour at ambient temperature prior to the measurement of the luminescent signal on ViewLux(R) uHTS Microplate Imager (Perkin Elmer, Waltham, MA).
As to `CCC(C)Cn1c(COc2ccc(OC)cc2)nc2ccccc21` (centres undefined), the activation is inactive: -16.2%.

Consider `Cc1ccc(Cl)cc1N1CCN(C(=O)c2cc(S(=O)(=O)N3CCC(C)CC3)cn2C)CC1`, for which the activation is inactive: -4.63%. With `CC(=O)Nc1ccc(NC(=O)CC2Sc3ccccc3NC2=O)cc1` (centres undefined), the activation is inactive: -6.68%.

As for `Cc1c(CNCc2ccc(Cl)cc2)c(C(=O)O)c(C)n1Cc1ccc(F)cc1`, the activation was inactive: -2.77%. The value for `COc1ccc(NC(=O)CSc2nc3nc(C)cc(C)n3n2)cc1` was inactive: -1.61%. Then `CCOc1ccc(CNC(=O)C2CCN(S(=O)(=O)c3c(C)noc3/C=C/c3ccc(C)cc3)CC2)cc1OC`, with inactive: -3.67%; and `COc1ccc(NC(=O)Cn2c(CCC(=O)O)ccc2-c2ccccc2)cc1Cl`, with inactive: -24.6%. Then `CCCN(CCC)CCCNC(=O)C1CCC(CNS(=O)(=O)c2ccc(NC(C)=O)cc2)CC1` (centres undefined), with inactive: -13.1%. For the compound `COc1cccc(CNC(=O)CCc2nnc3n(C)c(=O)c4sccc4n23)c1`, the activation was inactive: -7.63%.

For the compound `CCOC(=O)c1c(C)oc2nc(C)nc(Nc3cccc(OC)c3)c12`, the activation is inactive: -6.64%.

On to `CCOC(=O)Cc1ccc(NC(=O)n2ncc3c(C)cccc32)cc1`, for which the activation is inactive: 44.5%.

In the case of `CCOc1ccc(CC(=O)Nc2c(C(=O)c3ccc(F)cc3)oc3ccccc23)cc1OCC`, the activation was inactive: 31.5%. Consider `Nc1ccc(S(=O)(=O)Nc2ccccn2)cc1`, for which the activation was inactive: -0.55%.

On to `CCC(O)c1nc2ccccc2n1Cc1cccc(Cl)c1` (centres undefined), for which the activation is inactive: -14.3%. For `COc1ccc(C(CNC(=O)COc2ccc(C)c(C)c2)N2CCCCC2)cc1` (centres undefined), the activation is inactive: -12.5%. Turning to `Cc1ccccc1CSc1cn(CCNC(=O)c2cccs2)c2ccccc12`, the activation was inactive: 24.6%.

`CC(=O)NCCNC(=O)CCCc1nnc2n(CCC(C)C)c(=O)c3sccc3n12`: the activation is inactive: -11.2%.

For the compound `CCOc1ccc(-n2c(Cc3ccccc3)nnc2SCc2nc(-c3ccccc3C)no2)cc1`, the activation was inactive: -27.7%.

For `CCOC(=O)c1c(C)[nH]c(CCC(=O)NCCCN2CCN(c3cccc(Cl)c3)CC2)c1C`, the activation is inactive: 3.48%.

In the case of `CCn1c(CN2CCC(C)CC2)nc2cc(NC(=O)c3ccccc3[N+](=O)[O-])ccc21`, the activation is inactive: -17.3%. The value for `Cc1ccc(C)c(Cn2c(=O)c3c(nc4n3CCN4c3ccc(F)cc3)n(C)c2=O)c1` was inactive: 4.02%; that for `CCc1ccc(OC(=O)CSc2nnc(-c3ccc4c(c3)OCO4)o2)cc1` was inactive: -6.11%; that for `Cc1ccc(NC(=O)C(=O)NCC(c2cccnc2)N2CCOCC2)cc1C` (centres undefined) was inactive: 23.5%.

Take `CCS(=O)(=O)N1CCc2cc(C(=O)N3CCN(c4cccc(C(F)(F)F)c4)CC3)ccc21`: the activation is active: 64.7%. The value for `Oc1cccc(C(Nc2ccccn2)c2ccc3cccnc3c2O)c1Cl` (centres undefined) was active: 81%; that for `CCOCCCNC(=O)C(c1ccc(OC)cc1)N(Cc1cccs1)C(=O)c1ccc(NC(C)=O)cc1` (centres undefined) was inactive: -4.55%. The value for `N[C@@H](Cc1ccc(O)c(I)c1)C(=O)O` was inactive: -5.31%. Then `Cc1ccc(C(=O)c2oc3ccccc3c2NC(=O)c2cc(=O)c3ccccc3o2)cc1`, with inactive: 3.41%; and `Fc1cccc(-c2nc(-c3ccncc3)no2)c1`, with inactive: -5.09%; and `COc1cccc(-c2cn3c(n2)sc2cc(C(=O)NCc4cccs4)ccc23)c1`, with inactive: -0.88%. Consider `COc1ccc(CNC(=O)Cn2ccc3cc(S(=O)(=O)N4CCCCCC4)ccc32)cc1OC`, for which the activation was inactive: 12.5%. Then `COc1ccc2oc(=O)cc(CN3CCN(C(=O)c4ccccc4F)CC3)c2c1`, with inactive: -3.84%. The value for `CCCc1noc(-c2ccc(N3CCCCC3)c([N+](=O)[O-])c2)n1` was inactive: -6.72%; that for `CN(C)S(=O)(=O)N(CC(=O)NCCSCc1ccccc1Cl)c1ccccc1` was inactive: -12.6%; that for `COc1cccc(-c2nc(SCC(=O)Nc3ccc4c(c3)OCO4)c(-c3ccccc3)[nH]2)c1` was inactive: -23%. The value for `COc1cc(NC(=O)Cn2ncc3c(=O)oc4ccccc4c32)cc(OC)c1OC` was inactive: 8.28%; that for `CCc1ccc(S(=O)(=O)c2nnn3c2nc(NCCc2ccccc2)c2sccc23)cc1` was inactive: -26%; that for `Cc1nc2c(cnn2-c2ccccc2Cl)c(=O)n1-c1ccc(C(C)C)cc1` was inactive: 18.7%. `Cc1cccc(N2CCN(S(=O)(=O)c3cc(Br)cc4c3N(C(=O)C3CC3)CC4)CC2C)c1` (centres undefined): the activation was inactive: 7.18%. `COc1ccc(CCn2cc3c(c2-c2ccccc2Br)c(=O)n(C)c(=O)n3C)cc1OC`: the activation is inactive: 2.99%.

For the compound `CCOC(=O)c1cc(S(=O)(=O)Nc2ccc(OC)c(Cl)c2)[nH]n1`, the activation is inactive: 6.48%. Then `CCOC(=O)C1(C)C=C(Nc2ccc(C(N)=O)cc2)C(=O)N1c1ccccc1` (centres undefined), with inactive: -7.2%. The value for `COc1ccc2c(Sc3ccccc3)c(C(=O)NCc3cccc(OC)c3OC)[nH]c2c1` was inactive: -12.3%; that for `CCOc1ccc(CCNC(=O)CCCc2nnc3n(CC(C)C)c(=O)c4sccc4n23)cc1` was inactive: -18.7%. Then `CC(C)OCCCn1c(SCc2cccc(Br)c2)nc2c(sc3ccccc32)c1=O`, with inactive: -2.92%. With `CN1C(=O)Cc2cc(S(=O)(=O)CCC(=O)Nc3cccc(C(F)(F)F)c3)ccc21`, the activation was inactive: 3.22%. For the compound `CC(=O)N1c2ccc(S(=O)(=O)NCC3CCC(C(=O)NCCC(C)C)CC3)cc2CC1C` (centres undefined), the activation was inactive: -12.7%. The value for `Cc1ccc(OC(=O)c2cc(-c3ccccc3)nc3ccc(C)cc23)cc1` was inactive: -1.98%. `COCCNC(=O)c1ccc2c(c1)N(Cc1cccc(Cl)c1)C(=O)c1ccccc1S2(=O)=O`: the activation is inactive: -32.3%.

Turning to `COc1ccccc1Oc1nc2c(c(=O)n(C)c(=O)n2C)n1Cc1cccc(Br)c1`, the activation was inactive: -5.37%. Turning to `CC(=O)Nc1ccc(S(=O)(=O)Nc2cccc(-c3ccc(N4CCC(C)CC4)nn3)c2)cc1`, the activation is inactive: 0.251%. With `COCCCN1C(=O)N(c2ccccc2)C(=O)C1CC(=O)Nc1ccc(F)cc1` (centres undefined), the activation was inactive: -7.08%.

On to `Cc1cc(C)c(NC(=O)Cn2nc3c(cc2=O)CCCC3)c(C)c1`, for which the activation is inactive: 0.105%. The value for `O=C(NCc1ccc2c(c1)CCN2C(=O)c1ccc(F)cc1)c1ccc(Br)o1` was inactive: -11.5%; that for `COc1cc(OC)cc(C(=O)Nc2cc3nn(-c4ccccc4)nc3cc2Cl)c1` was inactive: -19.2%.

`CCCS(=O)(=O)c1ncc(Cl)c(C(=O)N(Cc2ccccc2)Cc2ccco2)n1`: the activation is inactive: -15.6%. Then `CCOc1ccc(-c2oc3ccccc3c(=O)c2O)cc1OCC`, with inactive: 15.2%; and `COc1ccccc1NC(=O)C1=C(C)Nc2c(C(=O)Nc3ccc(F)cc3)cnn2C1c1ccc(Cl)cc1` (centres undefined), with inactive: -11.6%. As for `O=C(Nc1ccc(S(=O)(=O)Nc2ccccc2)cc1)N1CCCC1`, the activation is inactive: 19%. For `COc1ccccc1NC(=O)N1CC(=O)Nc2sc3c(c2C1c1ccccc1)CCCC3` (centres undefined), the activation was inactive: -2.3%. The value for `Nc1ncnc2c1ncn2C1CCCO1` (centres undefined) was inactive: -4.74%; that for `Cn1c(=O)c2c(nc(SCC(=O)Nc3ccc(OC(F)(F)F)cc3)n2Cc2cccc(C(F)(F)F)c2)n(C)c1=O` was inactive: -7.75%; that for `COc1ccc(-c2noc(-c3ccc(NCc4ccc(C)cc4)c([N+](=O)[O-])c3)n2)cc1OC` was inactive: 8.23%. Then `O=S1(=O)c2cccc3cccc(c23)N1CCCN1CCN(c2ccc(F)cc2)CC1`, with inactive: -2.33%. Then `Cc1ccc(S(=O)(=O)Nc2cc3c(cc2C)n(C)c(=O)c(=O)n3C)cc1`, with inactive: -3.05%. For `CCOC(=O)c1c(N)n(-c2ccc(C)c(C)c2)c2nc3ccccc3nc12`, the activation was inactive: 20.5%. `Cc1ccc(CSC2=Nc3ccccc3C3=NC(CCC(=O)N4CCN(c5ccccc5)CC4)C(=O)N23)cc1` (centres undefined): the activation was inactive: -27.1%. Consider `Cc1cc(NC(=O)N2CC=C(c3c[nH]c4ccccc34)CC2)ccc1Br`, for which the activation was inactive: -9.14%.

With `O=C(Cn1c(=O)n(-c2ccc(F)cc2)c(=O)c2sc3ccccc3c21)N1CCCC1`, the activation is inactive: -2.55%. Regarding `CCOC(=O)c1sc2ccccc2c1S(=O)(=O)Nc1c(C)cccc1C`, the activation was inactive: -17.8%. In the case of `Cn1nc(C(=O)NCc2ccccc2)c2c1-c1ccccc1SC2`, the activation is inactive: -16.8%. In the case of `Cc1ccc(-c2onc(C)c2C)cc1S(=O)(=O)N1CCCCC1`, the activation is inactive: -1.08%.

`CCc1nn(CC(=O)NCCc2ccc(OC)cc2OC)c(=O)c2cc3sccc3n12`: the activation was inactive: -17.2%. Then `COc1cccc(CNC(=O)Cn2cc3c(n2)-c2c(oc(C(=O)N4CCCC4)c2C)CC3)c1OC`, with inactive: -11.3%; and `COc1ccc(-n2nc(C(=O)N3CCC(C)CC3)c3c4ccccc4n(C)c3c2=O)cc1Cl`, with inactive: 3.39%; and `O=c1[nH]c(=O)c2ccccc2o1`, with inactive: -2.32%. Then `Cc1ccccc1NC(=O)CSc1nc(-c2ccc(F)cc2)c2cccc(C)c2n1`, with inactive: -5.45%.

As for `COc1cc(CNC(=O)c2cc(-c3ccccc3)n[nH]2)cc(OC)c1OC`, the activation was inactive: 6.87%. The value for `COc1ccc(-c2cc3nc(C)c(CCC(=O)N4CCN(c5cccc(Cl)c5)CC4)c(C)n3n2)c(OC)c1` was inactive: 3.78%. For `O=C(NCc1cccs1)c1ccc2c(c1)N(Cc1ccccc1Cl)C(=O)c1ccccc1S2`, the activation is inactive: -12.6%. In the case of `O=C(CN1C=NS(=O)(=O)c2ccccc21)Nc1ccc(F)cc1`, the activation is inactive: 15.3%. Consider `CCOc1ccccc1NC(=O)C(Cc1ccccc1)NS(=O)(=O)c1ccc2c(c1)oc(=O)n2C` (centres undefined), for which the activation is inactive: -5.9%. Then `CC(C)Cn1c(=O)c2ccccc2n2c(CCC(=O)NCc3ccccc3Cl)nnc12`, with inactive: -4.05%; and `COc1ccc(-c2cc(C(=O)OCC(=O)c3ccc(C)cc3)c3cccc(Cl)c3n2)cc1`, with inactive: -3.86%.
